Experimental data from PubChem BioAssay AID624296 (National Center for Advancing Translational Sciences (NCATS), 2012).
The campaign covered roughly 350,000 compounds. About 9,900 (2.8%) were called active. This list was built around the results that the source calls inconclusive (neither active nor inactive); the mix of calls is not that of the screen. Calls follow the shape of the dose curve; as a rule, active = well fitted activation curve with a large enough effect; inconclusive = small, poorly fitted or top-dose-only effect; inactive = no such curve, though single readings can be large or run the other way. Potencies of inconclusive entries are left out as doubtful fits.

assay: A quantitative high throughput screen for small molecules that induce DNA re-replication in MCF 10a normal breast cells.; also: nearly all actives have a fitted effect of over 50% in size; as to activity, positive = re-replication: % of control where 0% means no effect; settings: MCF 10A DNA re-replication, Hoechst nuclear intensity, 48 h; activity, positive = re-replication: at 46.1 µM (top of the series)
Potency is read from the fitted curve at half-maximal effect; tags tell the direction and shape of the fitted curve.

Row | SMILES | Potency | activity, positive = re-replication
1 | CC1Cc2ccccc2N1C(=O)C1CCCN1S(=O)(=O)c1ccc(Cl)cc1 (stereo unspecified) | inconclusive [activator, partial curve, poor fit] | 
2 | Cc1c(CCOC(=O)CC23CC4CC(CC(C4)C2)C3)sc[n+]1CC(=O)c1ccc(Br)cc1 | inconclusive [activator, single point] | 
3 | COC(=O)c1ccc(COc2ccccc2/C=C(\C#N)C(=O)Nc2c(C)cccc2C)cc1 | active: 8.2 µM | 
4 | COc1ccc(CCNC(=O)Cn2nc([N+](=O)[O-])c(Br)c2C)cc1OC |  | inactive: 1.25%
5 | CC1=C(C(=O)OC(C)C)C(C)NC(=O)N1 (stereo unspecified) |  | inactive: -3.49%
6 | CC(C(=O)Nc1ccc(Cl)cc1)c1ncc(C(F)(F)F)cc1Cl (stereo unspecified) | inconclusive [activator, single point] | 
7 | COc1ccc(/C=N/NC(=O)Cc2csc(Nc3cccc(C(F)(F)F)c3)n2)cc1C | inconclusive [activator, single point] | 
8 | Oc1ccc(C[C@H]2CNC(=S)N2CC2CCCN2C[C@H](Cc2ccc(O)cc2)N2C[C@H](Cc3ccc(O)cc3)N(CC3CCCCCC3)C2=S)cc1 (stereo partly specified) | active: 10.3 µM | 
9 | O=C(CN1C(=O)NC2(CCCC2)C1=O)OCc1c(F)cccc1Cl |  | inactive: -31.7%
10 | O=C(COc1ccc(Cl)cc1Cl)NCCC1=CCCCC1 | inconclusive [activator, single point] | 
11 | CCOC(=O)c1ccc(NC(=O)CNC(=O)C23CC4CC(CC(C4)C2)C3)cc1 | inconclusive [activator, single point] | 
12 | COC(=O)N/N=C/c1c(C)c(C(=O)c2ccc(F)cc2)n2ccccc12 | inconclusive [activator, single point] | 
13 | O=C(COC(=O)[C@H](Cc1c[nH]c2ccccc12)NC(=O)c1ccc(Cl)cc1)Nc1ccc2c(c1)OCO2 | inconclusive [activator, single point] | 
14 | Cc1ccccc1C(=O)NC(=S)NCCN1CCOCC1 |  | inactive: -0.782%
15 | C=C1c2nc3ccccc3n2C=C(c2ccc(C)cc2)N1c1ccccc1 | active: 4.61 µM | 
16 | COc1ccc(OC)c(/C=C/C(=O)N2C(=O)c3cccc(N)c3C2=O)c1 | active: 18.4 µM | 
17 | CCOC(=O)c1ccc(NC(=O)c2cc3c(C)nn(-c4ccccc4Cl)c3s2)s1 | inconclusive [activator, single point] | 
18 | COc1cccc2c1C(=O)c1c(O)c3c(c(O)c1C2=O)C[C@@](O)(C(=O)CO)C[C@@H]3O[C@H]1C[C@H](N)[C@H](O)[C@H](C)O1 | inactive | 
19 | CC(C)(C)c1ccc(C(=O)N2CCN(CCNC(=O)C(=O)NCc3ccccc3)CC2)cc1 |  | inactive: -1%
20 | O=C1C=C(c2ccc(Oc3ccccc3)cc2)C[C@@H](c2ccc(F)cc2)C1 | inconclusive [activator, partial curve, poor fit] | 
21 | Cc1ccc(CNC(=O)CCc2c(C)nc3c(c(C)nn3-c3ccc(C)cc3)c2C)cc1 |  | inactive: -0.127%
22 | COc1cc(/C=C/c2cccc[n+]2C)ccc1OCC(=O)Nc1ccccc1C |  | inactive: -3.41%

Row | SMILES | Potency | activity, positive = re-replication
23 | Cc1ccc(-c2csc(NC(=O)Cn3cnc4c3c(=O)n(C)c(=O)n4C)n2)cc1C | active: 20.6 µM | 
24 | O=C(c1cnn2c1NC(c1ccco1)CC2C(F)(F)F)N1CCN(c2cccc(Cl)c2)CC1 (stereo unspecified) | active: 7.31 µM | 
25 | CCn1c(=O)n(CC)c2cc(NS(=O)(=O)c3ccccc3)ccc21 |  | inactive: 8.33%
26 | O=C(C1CCN(S(=O)(=O)c2cc(Cl)ccc2Cl)CC1)N1CCCC1 | inconclusive [activator, partial curve, poor fit] | 
27 | COc1ccc2c(c1)[C@H]1[C@H](CO2)[C@H](c2ccccc2)[C@]2(C)C(=O)Nc3cc(F)c(F)cc3C(=O)N12 | inconclusive [activator, single point] | 
28 | C/C(CCS(=O)(=O)c1ccccc1)=N/O | inconclusive [activator, partial curve, poor fit] | 
29 | CCOC(=O)c1sc(-c2ccccc2)cc1NC(=O)CSc1nnnn1C | inconclusive [activator, partial curve, poor fit] | 
30 | Cc1ccsc1/C=N/NC(=O)c1ccncc1 |  | inactive: -6.69%
31 | CN(C)c1nc(N)c([N+](=O)[O-])c(NCCO)n1 |  | inactive: -0.226%
32 | N#Cc1ccccc1COC(=O)c1ccc2c(c1)OCO2 | inconclusive [activator, single point] | 
33 | Cc1cc(CNC(=O)c2ccc(C)c([N+](=O)[O-])c2)c2ccccc2n1 | inconclusive [activator, partial curve, poor fit] | 
34 | COc1cc(SC)ccc1C(=O)NNC(=O)c1cc(C)oc1C | inconclusive [activator, single point] | 
35 | COc1ccc(NC(=O)c2ccc(=O)[nH]c2)cc1S(=O)(=O)N1CCCCC1 |  | inactive: 0.0891%
36 | O=C(Nc1ccccc1)C1=C[C@@H](c2coc3ccccc3c2=O)C[C@@H](OCc2ccc(CO)cc2)O1 | inconclusive [activator, single point] | 
37 | CCOC(=O)N/N=C\c1cccc(OC)c1OC/C=C/c1ccccc1 | inconclusive [activator, single point] | 
38 | O=C(CCNc1ccc(Cl)cc1)c1cccs1 | inconclusive [activator, single point] | 
39 | CCNS(=O)(=O)c1ccc(C(=O)OCc2cc(=O)oc3cc(OC)ccc23)cc1 | active: 14.6 µM | 
40 | CC1(C)CC2CC(C)(CN2S(=O)(=O)c2ccc(C(=O)Nc3cc(S(=O)(=O)N4CCOCC4)ccc3Cl)cc2)C1 (stereo unspecified) | inconclusive [activator, full curve, poor fit] | 
41 | C=CC[C@@H]1Cc2c(Br)ccc(Br)c2[C@@H](CC=C)N1 | inconclusive [activator, single point] | 
42 | Cc1nn(C)c(C)c1S(=O)(=O)N(CC(=O)NC1CCCCCC1)c1ccc(C(C)C)cc1 | active: 11.6 µM | 
43 | CCOc1cc(N2CCOCC2)c(OCC)cc1NC(=O)C(NC(=O)c1c(F)cccc1F)C(C)C (stereo unspecified) |  | inactive: -3.51%
44 | CCOc1ccc2[nH]cc(C(=O)NCCc3ccccc3)c(=O)c2c1 | inconclusive [activator, single point] | 

Row | SMILES | Potency | activity, positive = re-replication
45 | COc1ccc(NC2CC(=O)N(c3cccc(C)c3)C2=O)cc1 (stereo unspecified) | inconclusive [activator, single point] | 
46 | CCOc1ccc(-c2[nH]nc3c2C(c2ccc(O)cc2)C(C#N)=C(N)O3)cc1 (stereo unspecified) | inconclusive [activator, partial curve, poor fit] | 
47 | OC(COc1cccc2ccccc12)CN1CCN(c2ccccn2)CC1 (stereo unspecified) | inconclusive [activator, full curve, poor fit] | 
48 | COc1ccc(N2CCN(CCNC(=O)Nc3ccc(C)c(Cl)c3)CC2)cc1 | inconclusive [activator, single point] | 
49 | CSc1nc2ccccc2n1CC(=O)Nc1ccccc1 |  | inactive: 9.13%
50 | O=c1c2ccccc2nnn1CSc1nc2ccccc2[nH]1 | inconclusive [activator, partial curve, poor fit] | 
51 | Cc1nn(-c2ccccc2)c(Cl)c1C1C(C#N)=C(N)OC2=C1C(=O)CC(C)(C)C2 (stereo unspecified) | inconclusive [activator, single point] | 
52 | CC(C)Cn1c(N)c(C(=O)COC(=O)c2ccc(O)cc2O)c(=O)n(C)c1=O | inconclusive [activator, partial curve, poor fit] | 
53 | C/C(CCc1oc2ccc(Cl)cc2c1-c1ccc(C)o1)=N\O | inconclusive [activator, single point] | 
54 | Cc1cc(C(=O)CN2C(=O)NC3(CCCCC3)C2=O)c(C)n1Cc1ccc2c(c1)OCO2 | inconclusive [activator, partial curve, poor fit] | 
55 | COc1cc2c(cc1OC)CN(CC(=O)Nc1ccccc1C(=O)NC1CC1)CC2 |  | inactive: 8.74%
56 | CCOc1ccccc1N(C(=O)c1snc(C(N)=O)c1N)C(C(=O)NCc1ccccc1)c1ccc(O)cc1 (stereo unspecified) | inconclusive [activator, single point] | 
57 | CCOc1ccc(-n2c(=S)sc3c(=O)[nH]c(SCC(=O)NC(C)CC)nc32)cc1 (stereo unspecified) | inconclusive [activator, partial curve, poor fit] | 
58 | Cc1[nH]c2ccccc2c1C(C[N+](=O)[O-])c1cccs1 (stereo unspecified) | inconclusive [activator, partial curve] | 
59 | C/C(=N\Nc1cccc2cccnc12)c1ccccn1 | inconclusive [activator, partial curve, poor fit] | 
60 | O=C(N/N=C/c1ccc2c(c1)OCO2)c1cccs1 |  | inactive: 11.4%
61 | Cc1[nH]c2ccccc2c1C(O)CN1CCN(c2cccc(C(F)(F)F)c2)CC1 (stereo unspecified) | inconclusive [activator, single point] | 
62 | CC(=O)N1CCC(=NNC(=O)c2cc3ccccc3cc2O)CC1 | inconclusive [activator, single point] | 
63 | Cc1[nH]n(-c2ccc([N+](=O)[O-])cc2)c(=O)c1C=NCCc1c(C)[nH]c2ccccc12 |  | inactive: 5.68%
64 | CCCCCCNC(=O)C(C(=O)OCC)C1CCCCC1 (stereo unspecified) | inconclusive [activator, partial curve, poor fit] | 
65 | O=C1C=C(NCc2ccc(Cl)cc2)CC(c2ccco2)C1 (stereo unspecified) | inconclusive [activator, partial curve] | 
66 | O=C(CN1C(=O)NC2(CCCCCC2)C1=O)NCc1ccc(F)cc1 |  | inactive: -0.62%
